Reference: article PMC4336329 (PLoS ONE, 2015)
Screen size: about 310,000 compounds; about 2,200 (0.71%) showed an effect of 50% or more. The effect is printed as a negative number. Some of the results follow.

Each compound was assayed against human ether-à-go-go-related gene (hERG) potassium channel (human, UniProt Q12809) (assay: primary screen, population patch clamp on CHO cells stably expressing hERG).
Chain of human ether-à-go-go-related gene (hERG) potassium channel (Q12809 whole entry, looked up): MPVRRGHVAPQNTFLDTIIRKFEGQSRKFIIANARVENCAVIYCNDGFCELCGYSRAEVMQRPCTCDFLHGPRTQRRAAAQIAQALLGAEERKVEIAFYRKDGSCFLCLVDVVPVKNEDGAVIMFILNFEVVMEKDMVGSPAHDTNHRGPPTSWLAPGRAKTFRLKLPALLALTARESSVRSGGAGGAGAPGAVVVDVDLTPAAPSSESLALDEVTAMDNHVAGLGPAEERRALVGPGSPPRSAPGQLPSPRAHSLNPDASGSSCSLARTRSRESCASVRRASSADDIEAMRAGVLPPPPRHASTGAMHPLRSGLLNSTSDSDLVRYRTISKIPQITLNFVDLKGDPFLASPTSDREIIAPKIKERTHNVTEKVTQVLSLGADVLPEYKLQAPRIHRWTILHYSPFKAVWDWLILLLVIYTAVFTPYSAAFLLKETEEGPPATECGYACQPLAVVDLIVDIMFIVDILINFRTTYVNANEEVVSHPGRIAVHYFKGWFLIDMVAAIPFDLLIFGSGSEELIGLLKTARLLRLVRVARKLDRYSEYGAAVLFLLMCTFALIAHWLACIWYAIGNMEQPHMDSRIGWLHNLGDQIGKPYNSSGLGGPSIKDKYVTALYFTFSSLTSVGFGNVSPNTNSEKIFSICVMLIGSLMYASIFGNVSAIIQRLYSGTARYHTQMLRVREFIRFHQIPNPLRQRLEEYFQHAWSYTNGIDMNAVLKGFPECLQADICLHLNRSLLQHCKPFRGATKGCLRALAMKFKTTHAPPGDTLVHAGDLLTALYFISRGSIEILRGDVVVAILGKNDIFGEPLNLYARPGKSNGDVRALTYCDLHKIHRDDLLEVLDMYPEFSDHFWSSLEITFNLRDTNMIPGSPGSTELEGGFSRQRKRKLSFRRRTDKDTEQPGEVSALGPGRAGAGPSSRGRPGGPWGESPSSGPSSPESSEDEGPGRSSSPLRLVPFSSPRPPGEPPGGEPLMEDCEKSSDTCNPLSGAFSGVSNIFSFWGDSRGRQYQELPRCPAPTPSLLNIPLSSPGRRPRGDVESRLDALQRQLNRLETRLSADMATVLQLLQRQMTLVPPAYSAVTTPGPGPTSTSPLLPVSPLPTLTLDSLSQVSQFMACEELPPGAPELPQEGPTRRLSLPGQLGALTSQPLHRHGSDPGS

Row | Compound | hERG current change (%, negative = inhibition) at 1uM
1 | CC(C)C(C(=O)N1CCOCC1)N1C(=O)c2ccccc2C1=O (stereo not drawn) | 11.3%
2 | O=C(CSc1n[nH]c(-c2ccncc2)n1)Nc1ccc(Cl)c(Cl)c1 | 14.8%
3 | COc1ccc(Nc2nc(-c3ccccc3)nc3ccccc23)cc1.Cl | 17.9%
4 | C=CCn1cc(C=C2C(=O)NC(=O)NC2=O)c2ccccc21 | 7.96%
5 | COc1cccc(Oc2ccc(OC)cc2C(=O)O)c1 | 14.2%
6 | Cn1c(-c2ccccc2)cc2onc(-c3ccccc3)c2c1=O | 18.4%
7 | CCOc1cc(CN2CCCC(CNC(=O)c3ccc(F)cc3)C2)ccc1OC (stereo not drawn) | -17%
8 | CCCCN(Cc1ccccc1)C(=O)C1CCCN(S(=O)(=O)c2cnc[nH]2)C1 (stereo not drawn) | 10.7%
9 | COc1ccc(OC)c(CN2CCN(C(=O)CCC(=O)c3cccs3)CC2)c1 | 10.2%
10 | C=CCSc1nnc(COc2ccc(=O)n(-c3ccccc3)n2)n1CC | 6.6%
11 | O=C(NC1CCCCCC1)c1ccc(N2CCCC2=O)cc1 | 8.15%
12 | c1ccc(OCc2nnc3sc(-c4cccs4)nn23)cc1 | 3.89%
13 | CCOCCCn1c(N)c(C(=O)Nc2sc3c(c2C(=O)OC)CCCC3)c2nc3ccccc3nc21 | 10.8%
14 | Cc1c(C)c2c(OCC(=O)NC3CC3)cc3c(c2oc1=O)CCC(C)(C)O3 | 11.7%
15 | CCOCCCNC(=O)Cn1cc2c(n1)CCCCC2 | 6.86%
16 | Cc1cc(C)n(-c2nc3c(c(=O)n(C)c(=O)n3C)n2CCO)n1 | 13.1%
17 | Cc1ccc(C(=O)O)cc1N1CCCC1=O | 32.6%
18 | Cc1cc(OCc2nn[nH]n2)c2c(C)c(Cc3ccccc3)c(=O)oc2c1 | 2.66%
19 | CCC(C)Oc1cc(-c2ccnc(Nc3cccc(Cl)c3)n2)ccn1 (stereo not drawn) | -3.86%
20 | O=C(c1ccc(CSc2ccccc2)cc1)N1CCN(c2ccccc2)CC1 | -7.78%
21 | O=C1CSC(c2cccnc2)N1c1ccccc1 (stereo not drawn) | 8.11%
22 | COC(C(=O)Nc1ccnn1C1CCN(C(=O)c2ccc(C=O)cc2)CC1)c1ccccc1 (stereo not drawn) | -5.16%
23 | O=C(O)c1cc(N/N=C/C=C/c2ccccc2[N+](=O)[O-])ccc1Cl | 10.7%

Row | Compound | hERG current change (%, negative = inhibition) at 1uM
24 | Cc1cccc(C(=O)N/N=C/c2coc3ccccc3c2=O)c1 | -0.626%
25 | CCOc1ccc(NC(=O)NCCN2C(C)CCCC2C)cc1 (stereo not drawn) | -8.72%
26 | COC(=O)c1ccc(S(=O)(=O)N2CCCN(Cc3ccccc3)CC2)n1C | 5.75%
27 | CCOc1ccc(Cn2nnc(C(=O)NCCc3ccc(Cl)cc3)c2N)cc1 | 16.1%
28 | CC1Oc2ccccc2N(CC(=O)NC2CC2)C1=O (stereo not drawn) | 6.4%
29 | CCc1nc2n[nH]c(N)c2c2c1CSC(C)(C)C2 | -0.598%
30 | CC(=O)N1CCC[C@H]1C(=O)O | 8.95%
31 | COc1ccc(N2CCN(CCC(O)c3ccc4ccccc4c3)CC2)cc1 (stereo not drawn) | -45.7%
32 | CCc1ccccc1NC(=O)CN1CCN(C(=O)CNC(=O)Cc2cccc3ccccc23)CC1 | 3.64%
33 | Nc1nnc(/C=C/c2cccc([N+](=O)[O-])c2)s1 | 10.5%
34 | COc1cccc(NC(=O)c2cc(-c3ccc(OC)cc3OC)nc3ccccc23)c1 | 13.8%
35 | CN(C)NC(=S)NC(=O)C12CC3CC(CC(C3)C1)C2 | 9.67%
36 | NS(=O)(=O)c1ccc(NC(=O)C2CCCO2)cc1 (stereo not drawn) | 12.4%
37 | CC(=O)c1ccc(C(=O)N2CCC(n3nccc3NC(=O)C3CC3)CC2)cc1 | 0.412%
38 | CC(=O)Nc1ccc(C2=NN(CC#N)C(=O)SC2)cc1 | 13.6%
39 | O=C(NCCc1ccc(Cl)cc1)c1cccc(NC2=NC3CS(=O)(=O)CC3S2)c1 (stereo not drawn) | 13%
40 | COc1ccc(OC)c(S(=O)(=O)N/N=C\c2ccc3c(c2)OCO3)c1 | 14.5%
41 | CCN1CCN(c2oc(-c3ccco3)nc2C#N)CC1 | 9.51%
42 | O=C(Cn1nnc(-c2ccncc2)n1)NCCc1ccccc1 | 9.71%
43 | O=C(NCCN1CCOCC1)C1CCN(c2nc3ccccc3o2)CC1 | -7.82%
44 | C=CCOn1c(-n2nc(C)cc2C)nc2ccccc2c1=O | 8.36%
45 | CCOC(=O)C(Sc1cc(-c2ccccc2)nc2ncnn12)C(C)=O (stereo not drawn) | 15.5%
46 | CN(C)/C=C(\C=O)c1ncc(C(F)(F)F)cc1Cl | 13.4%

Row | Compound | hERG current change (%, negative = inhibition) at 1uM
47 | CC(C)n1cnc2cc(NCc3ccco3)ccc21.Cl | 7.77%
48 | C=CCn1cc(F)c(=O)n(CC=C)c1=O | 10.5%
49 | CC1=CC(C)(C)Nc2ccccc21 | 9.39%
50 | COCCNC(=O)CN(C(=O)CCC(=O)Nc1cc(C)on1)c1cccc(C)c1C | 10.5%
51 | CC(OC(=O)c1cccc(-n2cnnn2)c1)C(=O)Nc1cccc(Cl)c1 (stereo not drawn) | 6.34%
52 | Cc1ccc2c(COC(=O)CNC(=O)c3ccccc3)cc(=O)oc2c1 | -19.5%
53 | O=c1oc2cc(Cl)ccc2n1CSc1nc2ccccc2s1 | 11.9%
54 | O=C(CN(C(=O)C1CSC(=O)C1)c1cccc(F)c1)NCc1ccc2c(c1)OCO2 (stereo not drawn) | 7.68%
55 | CC(C)CCNC(=O)C(c1ccco1)N(Cc1ccccc1)C(=O)c1snc(C(N)=O)c1N (stereo not drawn) | -1%
56 | O=C(/C=C/c1ccccc1)NCCc1c[nH]c2ccccc12 | 9.97%
57 | COc1ccc(C(=O)CC2(CC(=O)c3ccc(OC)cc3)C(=O)N(C)C(=O)N(C)C2=O)cc1 | 2.38%
58 | Nc1ccc(C(=O)N/N=C/c2sc(N3CCOCC3)nc2-c2ccccc2)cc1 | 0.432%
59 | COC(=O)CCC(=O)OC1(C)C(=O)C=C2C=C(C3CC3)N(C(CO)CO)C=C2C1=O (stereo not drawn) | 9.43%
60 | COc1cc(Nc2ccc(C)cc2)c([N+](=O)[O-])nc1[N+](=O)[O-] | 8.96%
61 | S=C(Nc1ccc(Cl)cc1)c1nc2ccccc2[nH]1 | 13.7%
62 | CCOC(=O)Cc1csc(NC(=O)CSc2nnc(Cc3csc(N)n3)n2C)n1 | 10.1%
63 | CCCn1c(SCC(=O)c2[nH]c(C)c(C(C)=O)c2C)n[nH]c1=O | 11.1%
64 | CC(C)c1ccc(S(=O)(=O)N2CCN(C(=O)C3CCCCC3)CC2)cc1 | 8.18%
65 | COC(=O)C1=C(c2ccc(F)cc2OCc2ccccc2)C[C@@H]2CC[C@H]1N2C(=O)NCCOc1ccccc1 | 22.4%
66 | Cc1cc(O)c(C(=O)/C=C/c2ccccc2O)c(=O)o1 | 8.29%
67 | O=C(CCNC(=O)C1CCN(S(=O)(=O)c2ccccc2)CC1)NCc1cccc(Cl)c1 | -4.2%
68 | O=C(CN1CCN(S(=O)(=O)/C=C/c2ccccc2)CC1)Nc1ccc(N2CCOCC2)cc1 | 20.6%
69 | Cc1ccc(-c2cc(N)on2)cc1 | 11.7%

Row | Compound | hERG current change (%, negative = inhibition) at 1uM
70 | CCN(c1ccccc1)S(=O)(=O)c1ccc(N)cc1 | 4.68%
71 | CC(=O)N1c2ccc(S(=O)(=O)N3CCC(C(=O)Nc4cccc(C(F)(F)F)c4)CC3)cc2CC1C (stereo not drawn) | 12.2%
72 | CCOC(=O)c1c(NC(=O)CSc2nc(C)cc(C)c2C#N)sc(C(C)=O)c1C | 10.1%
73 | CCOC(=O)N1CCC(NC(=O)CCS(=O)(=O)c2ccc3c(c2)CCN3C(=O)CC)CC1 | 7.21%
74 | COc1ccc(C(=O)NCCNc2nc3cc(C)c(C)cc3cc2C)cc1 | 0.766%
75 | Cc1cc(NC(=O)CCC(=O)N(c2ccccc2)C(C(=O)NC(C)(C)C)c2ccccc2Cl)no1 (stereo not drawn) | 13.7%
76 | COc1ccc(S(=O)(=O)CCC(=O)NCCc2ccc(C)cc2)cc1 | 3.09%
77 | O=C(Nc1ccc(Br)cc1)C1CCCC1 | 9.58%
78 | CCCCn1c(O)c(C(C)=NCC2CCCO2)c(=O)[nH]c1=O (stereo not drawn) | -5.11%
79 | OCCN1CCN(c2ncnc3scc(-c4ccc(F)cc4)c23)CC1 | -0.973%
80 | CC1CCN(C(=O)c2ccc(S(=O)(=O)Cc3cc(F)ccc3F)c([N+](=O)[O-])c2)CC1 | 2.83%
81 | CC1CC(C)CN(CC(C)(C)NS(=O)(=O)c2ccc(Cl)cc2)C1 (stereo not drawn) | 4.49%
82 | CCCc1c(C)c2c(C)[nH]nc2oc1=O | 2.18%
83 | c1cc(C(c2nnnn2C2CCCCC2)N2CCN3CCCC3C2)ccn1 (stereo not drawn) | 7.76%
84 | CC(Oc1cc2oc(=O)c3c(c2cc1Cl)CCCC3)C(=O)NCc1ccccn1 (stereo not drawn) | 4.18%
85 | Cc1ccc(OCC(=O)Nc2ccc(S(=O)(=O)N3CCOCC3)cc2)c(Br)c1 | 9.65%
86 | COc1ccc(C(=O)C[n+]2ccc(-c3nnc4n3CCC4)cc2)cc1.[Br-] | 13.3%
87 | O=C(N/N=C/c1cccc(OC(=O)c2cccc(Br)c2)c1)c1cccnc1 | 7.28%
88 | Cc1ccc(N(C(C)C(=O)O)S(=O)(=O)c2c(C)n[nH]c2C)cc1 (stereo not drawn) | 16.6%
89 | CN1CCC(=O)N([C@H](CSc2ccc(Br)cc2)c2ccccc2)CC1 | -89.8%
90 | CN(Cc1cccnc1)C(=O)CNC(=O)c1ccc(Cl)cc1Cl | 3.55%
